Data published in PubChem BioAssay AID504332 (National Center for Advancing Translational Sciences (NCATS), 2011).
The campaign covered roughly 350,000 compounds. About 31,000 (8.9%) were called active. This list was built around the results that the source calls inconclusive (neither active nor inactive); the mix of calls is not that of the screen. Calls follow the shape of the dose curve; as a rule, active = well fitted inhibition curve with a large enough effect; inconclusive = small, poorly fitted or top-dose-only effect; inactive = no such curve, though single readings can be large or run the other way. Where the call is inconclusive, the potency comes from a doubtful curve fit.
% is scaled to controls: 0 for no effect and ±100 for the full control effect; potency is read from the fitted curve at half-maximal effect; tags tell the direction and shape of the fitted curve.
Also: nearly all actives have a fitted effect of over 75% in size.

These compounds were tested against Histone-lysine N-methyltransferase EHMT2 (Homo sapiens) (UniProt Q96KQ7) (assay: qHTS Assay for Inhibitors of Histone Lysine Methyltransferase G9a). Details: G9a H3K9 monomethylation, AlphaScreen, 2 h; activity, negative = inhibition: at 59 µM (top of the series) unless noted.
Chain of UniProt Q96KQ7 (Q96KQ7 whole entry, looked up): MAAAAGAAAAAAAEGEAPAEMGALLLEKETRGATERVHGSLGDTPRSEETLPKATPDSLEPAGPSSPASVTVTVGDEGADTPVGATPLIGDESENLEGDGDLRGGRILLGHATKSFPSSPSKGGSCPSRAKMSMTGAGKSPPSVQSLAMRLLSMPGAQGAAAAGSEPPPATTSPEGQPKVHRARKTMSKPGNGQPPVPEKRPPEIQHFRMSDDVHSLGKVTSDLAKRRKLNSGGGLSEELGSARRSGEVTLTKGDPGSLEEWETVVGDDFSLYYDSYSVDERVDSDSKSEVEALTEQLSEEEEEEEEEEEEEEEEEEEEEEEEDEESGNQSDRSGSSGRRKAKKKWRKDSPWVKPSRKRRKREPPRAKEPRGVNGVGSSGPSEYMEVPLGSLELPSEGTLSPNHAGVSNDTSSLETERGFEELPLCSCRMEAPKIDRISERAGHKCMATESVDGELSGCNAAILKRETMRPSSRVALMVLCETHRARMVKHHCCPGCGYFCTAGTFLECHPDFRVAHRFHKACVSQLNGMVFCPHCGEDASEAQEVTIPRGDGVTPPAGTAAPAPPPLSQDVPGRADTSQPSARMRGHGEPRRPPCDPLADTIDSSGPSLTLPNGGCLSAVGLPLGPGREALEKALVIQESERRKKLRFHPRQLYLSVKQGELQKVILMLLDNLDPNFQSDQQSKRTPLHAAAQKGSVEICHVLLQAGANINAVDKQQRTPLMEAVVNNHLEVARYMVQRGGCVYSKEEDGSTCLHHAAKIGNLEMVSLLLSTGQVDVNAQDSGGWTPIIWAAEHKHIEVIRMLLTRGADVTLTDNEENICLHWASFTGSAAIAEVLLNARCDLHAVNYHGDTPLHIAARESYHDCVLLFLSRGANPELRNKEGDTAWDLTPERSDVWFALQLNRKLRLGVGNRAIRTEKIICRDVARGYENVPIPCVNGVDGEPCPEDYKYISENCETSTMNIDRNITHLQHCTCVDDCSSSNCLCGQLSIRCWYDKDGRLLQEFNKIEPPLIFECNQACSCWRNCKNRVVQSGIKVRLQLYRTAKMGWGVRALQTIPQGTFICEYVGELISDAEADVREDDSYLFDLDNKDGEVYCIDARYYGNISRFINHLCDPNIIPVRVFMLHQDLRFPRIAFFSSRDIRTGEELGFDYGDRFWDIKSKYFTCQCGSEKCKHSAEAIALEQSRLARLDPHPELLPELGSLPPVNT
In short: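 Quantitative HTS format: methyltransferase activity on a biotin-tagged H3K9 peptide is measured by AlphaScreen, using a rabbit anti-monomethyl-H3K9 antibody with streptavidin donor and anti-IgG acceptor beads. Final levels are 20 nM enzyme, 500 nM peptide, 20 uM SAM; 2 h RT.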
CC(C)Sc1ncc(Cl)c(C(=O)Nc2ccc(S(=O)(=O)N(C)c3ccccc3)cc2)n1 was tested, and the Potency was inconclusive: 0.708 µM [inhibitor, partial curve, poor fit].
For Cc1ccc(C)c(CS(=O)(=O)c2cn(CC(=O)N(C(C)C)C(C)C)c3ccccc23)c1, the “activity, negative = inhibition” value was inactive: -5.94%.
For Cc1ccc(OCCn2nnc3sc4c(c3c2=O)CCC(C)C4)cc1 (centres undefined), the Potency was inconclusive: 35.5 µM [inhibitor, single point].
In the case of C=CCC1(CC=C)CCCN1C(=O)CC1C(=O)NCCN1Cc1cccc(OC)c1 (centres undefined), the Potency is reported as inconclusive: 79.4 µM [inhibitor, partial curve, poor fit].
COc1ccc(CNC(=O)CN(C(=O)CCC(=O)Nc2ccccn2)c2cccc(C)c2C)cc1 was tested, and the “activity, negative = inhibition” value was inactive: 4.93% [at 102 µM].
With COc1ccccc1NS(=O)(=O)c1cc(NC(C)=O)ccc1N1CCCCC1 the Potency was active: 8.91 µM.
With COc1ccc(OCCCC(=O)Nc2ccc(N3CCOCC3)cc2)cc1 the Potency was inconclusive: 12.6 µM [inhibitor, partial curve].
For COc1ccc(-c2nc(S(=O)(=O)c3ccc(C)cc3)c(N3CCCC3)o2)cc1, the Potency was inconclusive: 1.78 µM [inhibitor, partial curve, poor fit].
In the case of CCOC(=O)N1CCN(c2ccc(S(=O)(=O)N3CCC(C)CC3)cc2[N+](=O)[O-])CC1, the activity, negative = inhibition is reported as inactive: 1.86% [at 2.33 µM].
COc1ccc(S(=O)(=O)N2CCSC2)cc1C was tested, and the Potency was inconclusive: 44.7 µM [inhibitor, partial curve, poor fit].
With OCC1CCCN(C(=S)Nc2ccc(Nc3ccccc3)cc2)C1 (centres undefined) the Potency was active: 17.8 µM.
In the case of CCOC(=O)Cn1c(O)c(N=NC(=O)OC)c2ccccc21, the Potency is reported as inconclusive: 50.1 µM [inhibitor, partial curve, poor fit].
Cn1cnc(S(=O)(=O)N2CCC(C(=O)N3CCN(c4ccccc4F)CC3)CC2)c1 was tested, and the activity, negative = inhibition was inactive: 2.29% [at 12.7 µM].
For CN(Cc1ccccc1)C(=O)[C@H](Cc1ccc2ccccc2c1)NC(=O)[C@@H]1CCCN1C(=O)Nc1ccccc1[N+](=O)[O-], the Potency was inconclusive: 14.1 µM [inhibitor, partial curve].
With Cc1sc(NC(=O)C2CCCO2)c(C#N)c1C (centres undefined) the Potency was inconclusive: 2.51 µM [inhibitor, partial curve, poor fit].
For CSc1cccc(NS(=O)(=O)c2cn(C)c(C)n2)c1, the “activity, negative = inhibition” value was inactive: -1.21%.
Cc1cc(-c2ccc(C(C)C)c(S(=O)(=O)NCCN3CCC(C)CC3)c2)on1 was tested, and the Potency was inconclusive: 50.1 µM [inhibitor, partial curve, poor fit].
COc1cccc(C2/C(=C(\O)c3ccc4c(c3)OCCO4)C(=O)C(=O)N2CCCN2CCOCC2)c1OC (centres undefined) was tested, and the Potency was active: 3.55 µM.
For CN(C)C(=O)c1ccc2c(c1[N+](=O)[O-])C(=O)c1ccccc1C2=O, the Potency was inconclusive: 20 µM [inhibitor, single point].
CC(C)OC(=O)CSc1nnc(C2CCCCC2)n1N was tested, and the Potency was inconclusive: 70.8 µM [inhibitor, partial curve].
With O=c1cc(O)c2sc3nc(C(F)(F)F)c4c(c3c2[nH]1)CCCCC4 the “activity, negative = inhibition” value was inactive: -36.6% [at 102 µM].
With O=C1CC(c2ccco2)CC(O)=C1C=NCC1CCNCC1 (centres undefined) the Potency was inconclusive: 35.5 µM [inhibitor, partial curve, poor fit].
In the case of O=C(O)CCN1CCc2ccccc2C1c1ccncc1 (centres undefined), the Potency is reported as active: 50.1 µM.
In the case of CSc1nc2ccc(NC(=O)c3ccc(=O)[nH]c3)cc2s1, the Potency is reported as active: 50.1 µM.
COc1ccc2occ(CC(=O)Nc3ccc(S(=O)(=O)Nc4nc(C)cc(C)n4)cc3)c2c1 was tested, and the “activity, negative = inhibition” value was inactive: -26.5%.
Cc1ncc(S(=O)(=O)c2ccccc2)c(-c2ccccc2)n1 was tested, and the Potency was inconclusive: 39.8 µM [inhibitor, single point].
In the case of COc1ccc(NC(=S)N/C(=N/CS(=O)(=O)c2ccccc2)c2ccccc2)cc1, the Potency is reported as inconclusive: 25.1 µM [inhibitor, single point].
COc1ccc(-c2csc(NC(=O)CSc3nnc(Nc4ccccc4C)s3)n2)cc1 was tested, and the Potency was active: 11.2 µM.
CCOc1ccc2c(c1)NC(c1cccs1)=NC(c1ccc(F)cc1)=N2 was tested, and the Potency was inconclusive: 6.31 µM [inhibitor, single point].
COc1cccc(CNCc2cccc(Br)c2)c1OC was tested, and the Potency was active: 10 µM.
COc1ccc(Cl)cc1NC(=O)CN(C)C(=O)c1ccc(C)s1 was tested, and the Potency was inconclusive: 89.1 µM [inhibitor, single point].
With Cc1cccc(-c2nsc(SCC(=O)N3CCCC3)n2)c1 the Potency was active: 39.8 µM.
COc1cc(C(C[N+](=O)[O-])c2c(C)[nH]c3ccccc23)ccc1O (centres undefined) was tested, and the Potency was inconclusive: 31.6 µM [inhibitor, single point].
Cc1c(C(=O)OCc2nc3scc(-c4ccccc4)c3c(=O)[nH]2)cccc1[N+](=O)[O-] was tested, and the Potency was inconclusive: 89.1 µM [inhibitor, single point].
In the case of O=C(C=C1SCCS1)/C=C/c1ccco1, the Potency is reported as active: 39.8 µM.
For COc1ccc2c(c1)cc1c(=O)n(CC(=O)NCCCc3ccccc3)nc(C)n12, the “activity, negative = inhibition” value was inactive: -6.27%.
For COc1ccc(NC(=S)NN2C(C)CCCC2C)cc1 (centres undefined), the Potency was inconclusive: 79.4 µM [inhibitor, single point].
With COC(=O)c1ccc(Cn2nnc3c(=O)[nH]c(C4CCCN(S(=O)(=O)c5cccc(Cl)c5)C4)nc32)cc1 (centres undefined) the “activity, negative = inhibition” value was inactive: -0.399%.
In the case of O=C(Nc1cccc(NC(=O)c2cccs2)c1)c1ccc(Br)o1, the Potency is reported as inconclusive: 89.1 µM [inhibitor, single point].
In the case of CC(=O)Nc1ccc(S(=O)(=O)N2CCCCC2C(=O)O)cc1 (centres undefined), the Potency is reported as inconclusive: 1 µM [inhibitor, full curve, poor fit].
With COc1ccc(-c2nnn(CC(=O)N(CC(=O)NC3CCCC3)Cc3cccs3)n2)cc1OC the Potency was inconclusive: 70.8 µM [inhibitor, partial curve, poor fit].
COC(=O)c1cc(NC(=O)Cn2nc(-c3ccc(C)c(C)c3)ccc2=O)cc(C(=O)OC)c1 was tested, and the “activity, negative = inhibition” value was inactive: 3.89%.
With CCN(CC)S(=O)(=O)c1ccc(N2CCCC2)c(NS(=O)(=O)c2ccc([N+](=O)[O-])cc2)c1 the Potency was active: 10 µM.
Clc1ccc(-c2nnc(NCCN3CCCC3)c3ccccc23)cc1 was tested, and the Potency was inconclusive: 89.1 µM [inhibitor, single point].
In the case of CC1CCCN(c2ccc(C(=O)Nc3ccc4c(c3)OCO4)cc2[N+](=O)[O-])C1 (centres undefined), the Potency is reported as active: 22.4 µM.
In the case of Cc1cnc(C(=O)Nc2ccc(F)cc2)cn1, the activity, negative = inhibition is reported as inactive: -14.1% [at 12.7 µM].
With O=C(c1cccs1)n1nc(-c2ccco2)nc1SCc1ccccc1 the “activity, negative = inhibition” value was inactive: 27.5% [at 102 µM].
For COc1ccc(S(=O)(=O)n2[nH]c(=O)c(CCO)c2C)c([N+](=O)[O-])c1, the Potency was inconclusive: 39.8 µM [inhibitor, partial curve].
With CC(=O)Nc1nnc(SCC(=O)NC(C)(C)C)s1 the Potency was inconclusive: 56.2 µM [inhibitor, partial curve, poor fit].
With COCCN(CCOC)c1nc(-c2ccc([N+](=O)[O-])cc2)nc2ccccc12 the Potency was inconclusive: 89.1 µM [inhibitor, single point].
In the case of CSc1ccc(CN(C)C(=O)c2cc(Cl)c3c(c2)OCCO3)cc1, the Potency is reported as active: 56.2 µM.
COc1ccc(OCC(=O)N/N=C/c2ccc(N(C)C)cc2)cc1 was tested, and the Potency was active: 44.7 µM.
In the case of COC(=O)c1ccc(Oc2coc3cc(OCc4ccc([N+](=O)[O-])cc4)ccc3c2=O)cc1, the Potency is reported as active: 56.2 µM.
In the case of Cc1cc(C)nc(SCC(=O)Oc2ccc3oc(=O)cc(C)c3c2)n1, the Potency is reported as active: 50.1 µM.
In the case of CCOc1ccc(-c2cc(-c3nc(-c4ccc(OC)c(OC)c4)no3)[nH]n2)cc1, the “activity, negative = inhibition” value is reported as inactive: 7.59%.
For Cc1ccccc1CSc1ncc(CO)n1Cc1ccc(F)cc1, the “activity, negative = inhibition” value was inactive: 4.3%.
For O=C1NC(c2ccccc2)C(C(=O)c2cccs2)C(O)(C(F)(F)F)N1 (centres undefined), the Potency was inconclusive: 100 µM [inhibitor, partial curve, poor fit].
In the case of Cn1c(CN2CCOCC2)nnc1SCC(=O)Nc1ccc2c(c1)OCCO2, the Potency is reported as inconclusive: 31.6 µM [inhibitor, partial curve, poor fit].
For Cc1sc(NC(=O)/C=C/C(=O)O)c(C(N)=O)c1-c1ccc(C(C)(C)C)cc1, the Potency was inconclusive: 39.8 µM [inhibitor, single point].
O=C(O)c1ccc(N/N=C/c2cc3ccccc3nc2Cl)cc1 was tested, and the Potency was inconclusive: 56.2 µM [inhibitor, partial curve, poor fit].
In the case of CC(C)CNC(=O)c1cccc(NC(=O)c2ccc(Cl)c([N+](=O)[O-])c2)c1, the Potency is reported as inconclusive: 22.4 µM [inhibitor, partial curve, poor fit].
With NC(=S)N/N=C/c1ccc(-n2nncc2-c2ccc(Cl)cc2)cc1 the Potency was active: 44.7 µM.
For CCOC(=O)c1ccc(NC(=O)c2ccc(=O)n(Cc3cccc(C)c3)c2)cc1, the “activity, negative = inhibition” value was inactive: 6.98%.
For c1ccc(C(c2ccccc2)N2CCC3(CCNCC3)CC2)cc1, the activity, negative = inhibition was inactive: 8.69% [at 12.7 µM].
For Cc1ccc(NC(=O)CSc2sc3c(O)cc(=O)[nH]c3c2C#N)c(F)c1, the Potency was inconclusive: 5.01 µM [inhibitor, full curve].
In the case of COC(=O)c1c(NC(=O)C2CCCCC2)sc2c1CC(C)(C)NC2(C)C, the Potency is reported as inconclusive: 89.1 µM [inhibitor, single point].
For Cc1nn(C)c(C(=O)Nc2ccc(Cn3cccn3)cc2)c1[N+](=O)[O-], the Potency was inconclusive: 39.8 µM [inhibitor, partial curve, poor fit].
In the case of CN(C)S(=O)(=O)c1ccc(C(=O)Oc2cc(=O)[nH]c3ccccc23)cc1, the Potency is reported as active: 70.8 µM.
CC(C)COc1ccc(CSCCNC(=S)Nc2ccccc2)cc1 was tested, and the Potency was inconclusive: 20 µM [inhibitor, partial curve, poor fit].
